According to PubChem BioAssay AID1476 (National Center for Advancing Translational Sciences (NCATS), 2009):
“And” between values parts separate entries of the source, which are not always exact repeats. Identical values can stand only once. Out of some 200,000 compounds screened, about 4,500 (2.2%) were called active. Inconclusive means that the source gave no clear call. Such entries were picked first, then a sample of the others. The call rests on the fitted dose curve; in most records, active means well fitted inhibition curve with a large enough effect; inconclusive means small, poorly fitted or top-dose-only effect, or effect the other way; inactive means flat fitted curve, though single readings scatter. Potencies beside an inconclusive call are fits to weak or partial responses and may not hold up.

What follows are compounds tested against Cruzipain (Trypanosoma cruzi) (UniProt P25779) (assay: qHTS Assay for Promiscuous and Specific Inhibitors of Cruzain (without detergent)). Settings: purified cruzain, Z-FR-AMC fluorescence, no detergent.
UniProt P25779, sequence (P25779 whole entry, looked up): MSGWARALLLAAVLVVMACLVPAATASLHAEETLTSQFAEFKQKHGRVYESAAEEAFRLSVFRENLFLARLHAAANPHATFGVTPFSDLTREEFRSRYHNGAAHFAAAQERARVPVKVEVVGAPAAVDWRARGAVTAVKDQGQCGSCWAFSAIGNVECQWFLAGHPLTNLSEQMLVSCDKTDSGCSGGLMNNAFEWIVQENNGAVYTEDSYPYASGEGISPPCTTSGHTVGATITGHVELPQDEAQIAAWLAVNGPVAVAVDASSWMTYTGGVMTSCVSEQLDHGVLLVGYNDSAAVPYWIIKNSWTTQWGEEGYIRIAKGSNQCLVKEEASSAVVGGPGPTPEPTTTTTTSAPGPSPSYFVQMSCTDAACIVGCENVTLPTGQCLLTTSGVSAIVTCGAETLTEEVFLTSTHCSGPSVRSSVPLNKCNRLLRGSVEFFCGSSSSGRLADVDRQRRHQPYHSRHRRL
Method in brief: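 Detergent-free condition (0.00005% Triton X-100) in acetate buffer pH 5.5 with DTT. 1.5 nM enzyme and compound were pre-mixed 15 min, then 2 uM Z-FR-AMC substrate added; reaction progress from fluorescence change between first and third reads (60 s).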
Further: nearly all actives have a fitted effect of over 40% in size.
Potency means the concentration at half of the fitted maximal effect; tags describe the fitted curve by direction and shape.
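Wherever max response, negative = inhibition is given: plate controls were enzyme without inhibitor for no effect and buffer without enzyme for full effect.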

SMILES	Potency	max response, negative = inhibition
c1ccc(Nc2nc(N3CCOCC3)c3ccccc3n2)cc1	active: 12.6 µM	–
Cc1nn2c(N3CCN(C(=O)c4ccco4)CC3)cc(C(C)(C)C)nc2c1-c1ccc(Cl)cc1	inconclusive: 6.31 µM [activator, single point]	–
CC1CCN(C(=O)CCCNC(=O)Cn2cnc3sc4c(c3c2=O)CCCC4)CC1	inconclusive: 39.8 µM [activator, single point]	–
FC(F)(F)c1cccc(-c2ccc(-c3csnn3)o2)c1	–	inactive: -1.79%
CCc1ccc(CNc2ncc(-c3cccc(OC)c3)n2C)cc1	–	inactive: -7.89%
CCCn1c(=O)c2ccccc2n2c(SCc3nc4ccccc4s3)nnc12	active: 12.6 µM	–
Cc1ccn2c(NC(=O)c3cccc(Cl)c3)c(-c3ccccc3)nc2c1	inconclusive: 39.8 µM [activator, single point]	–
COCCn1c(SCC(=O)Nc2cc(Cl)ccc2OC)nc2c(c1=O)SC(C)C2 (stereo not given)	inconclusive: 39.8 µM [activator, single point]	–
Cc1ccc(Cn2c(SCC(C)C)nc3c2c(=O)[nH]c(=O)n3C)cc1	active: 10 µM	–
COC(=O)c1sccc1S(=O)(=O)N(CC(=O)NCc1ccc(C)cc1)c1ccccc1	–	inactive: 9.84%
N#Cc1c[nH]n2c(NC3CCCC3)c(-c3cccc(Br)c3)nc12	inconclusive: 31.6 µM [activator, single point]	–
Cc1cccc(NC(=O)/C(C#N)=C/c2cn(CC(=O)NCc3ccco3)c3ccccc23)c1	active: 10 µM	–
CC(C)CCn1c(=O)c2cccnc2n(CC(=O)Nc2ccccc2)c1=O	–	inactive: -7.87%
Nc1ncc(-c2cc3ccccc3oc2=O)s1	inconclusive: 12.6 µM [inhibitor, partial curve]	–
CC(NC(=O)C(=O)NN=C1CCC(C(C)(C)C)CC1)c1ccccc1 (stereo not given)	–	inactive: 14.7%
O=c1cc(-c2ccc(O)c(O)c2)oc2ccccc12	inconclusive: 39.8 µM [inhibitor, single point]	–
O=C(O)c1cc(N(Cc2ccccc2O)Cc2cc(O)ccc2O)ccc1O	–	inactive: -2.21%
CCOc1ccc(C(=O)COc2ccc(NC(C)=O)cc2)cc1	inconclusive: 15.8 µM [inhibitor, partial curve]	–
CCOC(=O)c1ccc(CN(Cc2ccc(C)cc2)S(=O)(=O)c2ccc(F)c(C(=O)Nc3ccc(C)c(F)c3)c2)cc1	–	inactive: -9.41%
O=C(O)c1cc(Cl)ccc1Cl	–	inactive: -5.96%
COc1ccc(-c2nc(SCc3ccccc3)n(C(=O)c3ccco3)n2)cc1	inconclusive: 25.1 µM [inhibitor, partial curve]	–
Cc1cccc(C(=O)NCC(c2cccs2)S(=O)(=O)c2cccs2)c1 (stereo not given)	–	inactive: -2.31%

SMILES	Potency	max response, negative = inhibition
COc1ccc(C(=O)Nc2ccc(NC(=O)c3cccs3)cc2)cc1OC	–	inactive: -26.7%
CCOC(=O)N1CCN(S(=O)(=O)c2ccc(F)c(C(=O)Nc3ccc(C(C)C)cc3)c2)CC1	inconclusive: 39.8 µM [activator, single point]	–
Cc1nn(C)c(C)c1CN(C)S(=O)(=O)c1ccc2ccccc2c1	inconclusive: 31.6 µM [activator, single point]	–
Cc1ccc(NC(=O)N2CC3CCCN3c3ccccc32)cc1C (stereo not given)	inconclusive: 31.6 µM [inhibitor, single point]	–
O=C(COC(=O)c1cccc(S(=O)(=O)N2CCc3ccccc32)c1)Nc1ncc(Cl)cc1Cl	inconclusive: 31.6 µM [inhibitor, single point]	–
CN(C)c1ccc(CN(Cc2ccco2)C(=O)COc2ccc(F)cc2)cc1	inconclusive: 31.6 µM [inhibitor, single point]	–
COC(=O)[C@@]1(Cc2ccc(F)cc2)[C@H]2c3cc(C(=O)N4CCCC4)n(CCc4c[nH]c5ccc(OC)cc45)c3C[C@H]2CN1C(=O)c1ccccc1	inconclusive: 31.6 µM [activator, partial curve] and inconclusive: 15.8 µM [activator, partial curve]	–
COc1cc2nc(NCC3CCCO3)n3nc(-c4cccnc4)nc3c2cc1OC (stereo not given)	inconclusive: 12.6 µM [activator, partial curve]	–
O=C(CNC(=O)c1ccc(Cl)cc1)OCc1nc2ccccc2s1	active: 15.8 µM	–
O=C(CSc1ncnc2sc3c(c12)CCCC3)N1CCC(c2noc3ccc(F)cc23)CC1	active: 15.8 µM	–
COC(=O)c1ccccc1NC(=O)CN(c1cc(OC)ccc1OC)S(C)(=O)=O	inconclusive: 39.8 µM [activator, single point]	–
CCn1c(SCC(=O)Nc2cc3oc4ccccc4c3cc2OC)nnc1-c1cccs1	inconclusive: 39.8 µM [inhibitor, single point]	–
CCC(=O)OCC(=O)[C@@]1(OC(=O)CC)[C@H](C)C[C@@H]2[C@@H]3[C@H]([C@@H](O)C[C@@]21C)[C@]1(C)C=CC(=O)C=C1C[C@@H]3Cl	inconclusive: 15.8 µM [activator, partial curve, poor fit]	–
Cc1ccc(NC(=O)CSc2nc3nc(C)c(Cc4ccccc4)c(C)n3n2)cc1	–	inactive: 4.44%
COc1ccc(S(=O)(=O)N2CCC(C(=O)OCC(=O)c3ccccc3)CC2)cc1[N+](=O)[O-]	inconclusive: 39.8 µM [inhibitor, single point]	–
Cc1cc(F)ccc1S(=O)(=O)N1CCCOC1CNC(=O)C(=O)NCCc1c[nH]c2ccccc12 (stereo not given)	inconclusive: 39.8 µM [inhibitor, single point]	–
CCn1c2ccccc2c2cc(NC(=O)CSc3nnc(-c4ccccc4)o3)ccc21	active: 20 µM	–
CCOc1ccc(NC(=O)c2oc3ccccc3c2NC(=O)C2CCCCC2)cc1	–	inactive: -2.08%
O=C(Nc1nc(-c2ccccc2)cs1)C1CCCCN1S(=O)(=O)c1ccc(Cl)cc1 (stereo not given)	inconclusive: 31.6 µM [inhibitor, single point]	–
CCOC(=O)C(Cc1ccc(NC(=O)/C(=C/c2ccccc2)NC(=O)c2ccccc2)cc1)N1C(=O)c2ccccc2C1=O (stereo not given)	inconclusive: 25.1 µM [inhibitor, single point]	–
Cn1cc(-c2cc3n(n2)CCC(=O)N3CCCC(=O)NCc2ccc(F)cc2)c2ccccc21	inconclusive: 20 µM [activator, partial curve]	–
CCn1c(=O)c(C(=O)NCc2ccccn2)c(O)c2ccccc21	inconclusive: 39.8 µM [activator, single point]	–

SMILES	Potency	max response, negative = inhibition
O=C(CN(Cc1ccccc1)S(=O)(=O)c1ccc2c(c1)OCCO2)N/N=C/c1cccc(Br)c1	inconclusive: 25.1 µM [inhibitor, single point]	–
CCOC(=O)N/N=C/c1ccccc1-c1cc(OC)ccc1OC	–	inactive: -6.04%
O=[N+]([O-])c1cc(S(=O)(=O)Nc2ccccc2)ccc1-n1nnc2ccccc21	inconclusive: 31.6 µM [inhibitor, single point]	–
Nc1c(C(=O)NC2CCCC2)sc2nc(-c3cccs3)ccc12	active: 25.1 µM	–
O=C(Cc1ccc(Cl)cc1)Nc1ccc(NC(=O)c2ccccc2)cc1	active: 25.1 µM	–
Cc1ccc(NC(=O)Cn2c(=O)c(C(F)(F)F)nc3ccccc32)cc1C	–	inactive: -2.6%
COc1cccc(C2C(C(=O)c3sc(C)nc3C)=C(O)C(=O)N2CCN(C)C)c1OC (stereo not given)	–	inactive: -9.72%
CNc1oc(Cc2ccccc2)nc1S(=O)(=O)c1ccccc1	active: 3.16 µM	–
COc1cccc(NC(=O)Cn2c(=O)c3c(ncn3Cc3ccccc3)n(Cc3ccccc3)c2=O)c1	inconclusive: 31.6 µM [inhibitor, single point]	–
Cc1ccc(-c2csc3ncnc(Oc4cccc5ccc(C)nc45)c23)cc1	inconclusive: 39.8 µM [inhibitor, single point]	–
Cn1cc(C(=O)c2ccc(Cl)cc2)cc1-c1nc2ccccc2n1C	inconclusive: 39.8 µM [inhibitor, single point]	–
COc1ccc(C(=O)O/N=C/c2ccc(S(=O)c3ccc(Cl)cc3)nc2)cc1 (stereo not given)	inconclusive: 25.1 µM [inhibitor, single point]	–
O=C(CCCCn1c(=O)[nH]c2ccsc2c1=O)N1CCN(c2cccc(C(F)(F)F)c2)CC1	inconclusive: 39.8 µM [activator, single point]	–
COc1ccc(CN(Cc2ccco2)C(=O)COc2ccc(Cl)cc2C)cc1	–	inactive: -1.57%
COc1ccccc1NC(=O)N1CCCC(c2nc3c(nnn3Cc3ccc(C)cc3)c(=O)[nH]2)C1 (stereo not given)	inconclusive: 39.8 µM [activator, single point]	–
COc1ccc(C(=O)c2ccc(N3CCN(C4CC(=O)NC4=O)CC3)cc2)cc1F (stereo not given)	inconclusive: 39.8 µM [activator, single point]	–
Cc1ccccc1C(=O)Nc1cccc(OCc2cc(=O)n3c4c(sc3n2)CCCC4)c1	–	inactive: -6.07%
COc1ccc2c(c1)c1c(c(=O)n(-c3ccc(C)cc3)c(=O)n1CC(=O)c1ccc(Cl)cc1)n2C	–	inactive: -8.96%
COc1ccc(NC(=O)Cn2cc(S(=O)(=O)N3CCC(C)CC3)c3ccccc3c2=O)cc1Cl	inconclusive: 31.6 µM [inhibitor, single point]	–
CCN(Cc1ccccc1)c1ccc(/C=N/NS(=O)(=O)c2cccc([N+](=O)[O-])c2)cc1	active: 25.1 µM	–
COc1cc(NC(=O)c2cc3sccc3n2C)cc(OC)c1	inconclusive: 25.1 µM [inhibitor, single point]	–
